These results are taken from the RNAGym collection of RNA variant scans (doi:10.7554/elife.90254).

B1: LINE1-mini (parent)
chain: GGCAGAGCUCAACACAGCGUGGCAAAGUGGCUGUGGCUAGACUGCC

Read counts are not given, so values of variants with three or more changes are uncertain.

This series covers variants of B1. Kind of series: self-cleavage, relative activity (ratio to wild type); higher = more cleavage; in vitro, sequencing; the parent is a self-cleaving ribozyme.
Turning to C10A C13U G21A, the self-cleavage is 0.01.
For the variant C10A C15A U20A G29U C42G, the self-cleavage came to 0.01.
Then C10A A11U U20G A26G C45G, with 0; and C10A C15U G27U A39U, with 0.05.
With C10A C15U G17U G29C, the self-cleavage stood at 0.02.
Consider C10A C13A U34C G40C, for which the self-cleavage worked out at 0.
Then C10A A14C U38A A39U A41C U43A, with 0.02; and C10A A16U G33C, with 0.03.
For C10A G17A U32C, the self-cleavage came out at 0.
C10A C18A A26C C42G G44C: the self-cleavage came to 0.
On to C10A C13G C18G, for which the self-cleavage came out at 0.02.
Regarding C10A G19A A26C G40U, the self-cleavage is 0.02.
The figure for C10A A16U C23G G40U C42A is 0.01; for C10A C13U C18U A25G G36C C45U it is 0.01.
C10A G17U G40C G44C: the self-cleavage is 0.02.
Take C10A C23G U34C G40U: the self-cleavage worked out at 0.01.
Consider C10A G17A G29A, for which the self-cleavage amounted to 0.05.
As to C10A A26C C37U C46A, the self-cleavage worked out at 0.
Consider C10A C23U A25G G33U, for which the self-cleavage was 0.
As to C10A C18G C31G, the self-cleavage is 0.02.
The figure for C10A A11C C42U is 0.04; for C10A A24U G40A it is 0.05.
Consider C10A A12G U32C U34G G35U G36C, for which the self-cleavage was found to be 0.01.
In the case of C10A A14C C31U C46U, the self-cleavage stood at 0.05.
C10A A11C G21U U32A G33U U34A: the self-cleavage is 0.01.
The figure for C10A G17U A25U is 0.13; for C10A A11G G21U U32G C46U it is 0.01.
C10A A24C C45G C46A: the self-cleavage is 0.
Then C10A G19A A41C, with 0.07; and C10A C15A A24U A39U, with 0.18.
On to C10A A12C G22U C42A, for which the self-cleavage was determined as 0.02.
For C10A C15U A41G, the self-cleavage was determined as 0.05.
For the variant C10A G17A G22U U28A G35C G40A, the self-cleavage came out at 0.02.
C10A C18G C37G A39C: the self-cleavage was determined as 0.
For the variant C10A C18A A26G G35A G40A, the self-cleavage turned out to be 0.01.
In the case of C10A C31U U34A C42G, the self-cleavage was found to be 0.01.
Consider C10A C13U C18A G22A A25U G33U, for which the self-cleavage is 0.01.
The figure for C10A C18A G22A C46A is 0.04.
Then C10A C18G G30A, with 0.07.
Then C10A C15G G17C, with 0.02.
C10A A12C C18A C46A: the self-cleavage was 0.02.
Turning to C10A G17A U20C, the self-cleavage was found to be 0.03.
Then C10A C31A G44U, with 0.01.
Then C10A A12C C15U A16C, with 0.04.
The figure for C10A C15G A16U C37G is 0.01.
For C10A A14G G21C G27C U38C, the self-cleavage came to 0.
Consider C10A G17U G21A A24U G33A C42G, for which the self-cleavage came to 0.
Consider U9G U43A C45G, for which the self-cleavage was 0.81.
Take C10A A11C G27A G29A G30U: the self-cleavage is 0.02.
Take C10A C13U G19A U32A G40U C46A: the self-cleavage is 0.03.
With C10A A14U G44U, the self-cleavage was 0.01.
Then C10A A39G C45U, with 0.
The figure for C10A A24G G36C is 0.01; for C10A A16G G22U C23A C31U it is 0.02.
With C10A A14U A16C U28G, the self-cleavage was 0.01.
As to C10A C13U U38C G44C, the self-cleavage is 0.03.
Then C10A C15U G17A A41C, with 0.04; and C10A A24G G35U, with 0.06.
In the case of C10A C31G U32C G36U C37A C46A, the self-cleavage was found to be 0.01.
As for C10A C13G G17U C18G, the self-cleavage turned out to be 0.05.
Then C10A C15U C18A G22A G29A, with 0.06; and C10A A41C C46G, with 0.01; and C10A C15U C18A, with 0.09.
Regarding C10A C18A G30A G35U C45U, the self-cleavage amounted to 0.01.
In the case of C10A A14U G30C C46A, the self-cleavage worked out at 0.01.
Turning to C10A A12C G29C C31G, the self-cleavage was 0.
Then C10A A11U C15G A26U A39C, with 0.01.
As to C10A A16G G22A, the self-cleavage was determined as 0.04.
The figure for C10A A12C G29U is 0.03; for C10A C23A G29A C46G it is 0.01.
With C10A C31G C42A, the self-cleavage was 0.01.
For C10A A14U G40U, the self-cleavage is 0.01.
The figure for C10A C18A G33A is 0.
For C10A C23A C42A, the self-cleavage amounted to 0.02.
For the variant C10A C15G A24U C31U, the self-cleavage was 0.01.
Take C10A A26C C37A: the self-cleavage came out at 0.04.
Turning to C10A A16G G35U C42A C46U, the self-cleavage came out at 0.18.
C10A A11G G22U: the self-cleavage came out at 0.03.
For C10A G17C C46G, the self-cleavage stood at 0.05.
As to C10A C18G C23U U34A C42G G44U, the self-cleavage was found to be 0.
Then C10A A11G G36C, with 0.02.
Then C10A C18U U32C G44U, with 0; and C10A C15U A25C G35A A39U A41C, with 0.04; and C10A A41C U43C C45U, with 0.01.
On to C10A A12G A25G G27U A39U G40A U43G, for which the self-cleavage came out at 0.
For the variant C10A A14G A25G, the self-cleavage was 0.03.
For the variant C10A A12C G19U A24U G29A G40A, the self-cleavage is 0.01.
Then C10A G17C A26G C45U, with 0.02.
For the variant C10A A16C G33U, the self-cleavage turned out to be 0.02.
For C10A A25C C37U U38C, the self-cleavage is 0.02.
Turning to C10A A25G A26U C31U, the self-cleavage was found to be 0.01.
As to C10A C15U A26U G33U G36A, the self-cleavage was determined as 0.03.
As for C10A C13A C42A, the self-cleavage was 0.07.
Turning to C10A C23G C46U, the self-cleavage came out at 0.02.
As to C10A C23A A25U C42A, the self-cleavage was found to be 0.02.
Consider C10A A25C U32G C42A, for which the self-cleavage was determined as 0.
Then C10A A14U G17U C18U G19C G29U U32A, with 0.01; and C10A A11G C23U, with 0.01; and C10A C13U A16G, with 0.01.
Take C10A C42G U43C: the self-cleavage stood at 0.01.
The figure for C10A C18G U32C is 0.01; for C10A C31U G33U it is 0.03.
Take C10A A12C C15G C18A G33U U38G: the self-cleavage was 0.11.
C10A A11C A12U G36U: the self-cleavage was 0.09.
Consider C10A C31A A39U C45A C46A, for which the self-cleavage came out at 0.03.
As to C10A G17C U28C C45G, the self-cleavage was determined as 0.52.
The figure for C10A A14C G21C G29A is 0.03; for C10A A16U G29U it is 0.32.
C10A A11U U28G C31A G33A: the self-cleavage turned out to be 0.
With C10A C37U C45G, the self-cleavage turned out to be 0.
The figure for C10A C18U C31U C45U is 0.01; for C10A C18U G21U G35U G36A U38G it is 0.01; for C10A A25U U32G G36U C45U it is 0.01.
Regarding C10A A16U G27C, the self-cleavage came out at 0.04.
Then C10A A14C G17C A25U U28A G30U, with 0; and C10A A16G C42A C46G, with 0.02; and C10A G17A A24C G30U, with 0.04.
Consider C10A A26C G29U G40C A41G, for which the self-cleavage was determined as 0.
The figure for C10A C18A G40U is 0.02; for C10A A16G C31G it is 0.01.
C10A G19A G29U: the self-cleavage was 0.07.
The figure for C10A A16G C23A is 0.01; for C10A A14U A26C G27C it is 0.02.
On to C10A G17A G30U, for which the self-cleavage is 0.03.
Take C10A C31A U43A: the self-cleavage was found to be 0.
Take C10A A26G G33A A41G C45U: the self-cleavage stood at 0.02.
Regarding C10A C18A A24G, the self-cleavage was 0.05.
Then C10A C23U G40U G44C C45G, with 0.03; and C10A C18G A25C G27C, with 0.53; and C10A C18G G22U C45U, with 0.07.
Consider C10A G19A C23U G44C, for which the self-cleavage was determined as 0.02.
C10A C15A U20A U32A: the self-cleavage was found to be 0.01.
As for C10A A26G U28C U34A C37U, the self-cleavage came to 0.01.
Then C10A A12G C18U C45G, with 0.01; and C10A A11U G40U, with 0.02; and C10A C13A C18A G19C G30U C31G, with 0.02.
Then C10A G17C C18G, with 0.01; and C10A A11C A24C C42U G44A, with 0.01.
For C10A C18G A24G U34G, the self-cleavage came to 0.04.
In the case of C10A A16U G27A G33U A41G, the self-cleavage amounted to 0.01.
As to C10A G17C G22C G44C, the self-cleavage was determined as 0.04.
Take C10A A12G G27U: the self-cleavage was 0.04.
As to C10A A39C G40A, the self-cleavage stood at 0.08.
On to U9G U34C C46G, for which the self-cleavage worked out at 0.04.
Then C10A A11C A12G C23G, with 0.01; and C10A A16C U32A G33U, with 0.
On to C10A C15U G27A G29C, for which the self-cleavage amounted to 0.46.
For the variant C10A A25C U28G, the self-cleavage turned out to be 0.03.
Take C10A A12C A25G: the self-cleavage is 0.
The figure for C10A C23A G29C C42U is 0.01; for C10A A26U G27C C37G C42G U43G it is 0; for C10A A16G G21U C37G it is 0.01.
Take C10A C18U A24C: the self-cleavage was 0.03.
Turning to C10A A41C C42A, the self-cleavage was 0.01.
The figure for C10A A16U C37A is 0.02; for C10A C13G G44U it is 0.01.
Regarding C10A C18U A41C, the self-cleavage stood at 0.01.
The figure for C10A C31U U32C is 0.07.
As for C10A C15A U38A G40U G44C, the self-cleavage was 0.01.
For C10A C18U A26C G35C A39G, the self-cleavage worked out at 0.01.
For C10A A14U U20C G35C C42A, the self-cleavage came out at 0.
Take C10A A11C G17U: the self-cleavage amounted to 0.05.
For C10A A16C U20A A41U, the self-cleavage stood at 0.03.
C10A A16C C46U: the self-cleavage worked out at 0.02.
For the variant C10A G17C G19A G40A A41C, the self-cleavage was 0.01.
Then C10A A39C G44C, with 0.05.
Regarding C10A A25G U32C G40C C46U, the self-cleavage is 0.
